From the supplement of paper PMC12217912
Some of the results follow. The full chains were built here from the parent and the listed change. Values near 0.05 are background.

B1: TEV protease; numbered along this chain (parent)
chain: MGESLFKGPRDYNPISSSICHLTNESDGHTTSLYGIGFGPFIITNKHLFRRNNGTLVVQSLHGVFKVKDTTTLQQHLVDGRDMIIIRMPKDFPPFPQKLKFREPQREERICLVTTNFQTKSMSSMVSDTSCTFPSGDGIFWKHWIQTKDGQCGSPLVSTRDGFIVGIHSASNFTNTNNYFTSVPKNFMELLTNQEAQQWVSGWRLNADSVLWGGHKVFMVKPEEPFQPVKEATQL

Variants of: B1
Test: raw area under fraction-flipped curve 0-4 h after induction (AUC4h, not background-subtracted), DNA-recorder readout of cleavage of the substrate (dimensionless); higher = more cleavage of the substrate by the protease variant
Conditions: temperature: 34 °C; time window: 0-4 h after rhamnose induction
Method: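 In vivo DNA recorder in E. coli TOP10(DE3) ΔrhaA at 34 °C. Each TEVp single-site mutant (parent TEVp 0) is paired with a single-site variant of the 7-mer TEVs (canonical ENLYFQ|S). The substrate sits between flexible linkers in a Bxb1-sfGFP-TEVs-SsrA fusion, so cleavage stabilises Bxb1 and speeds flipping of a recombination array, read by NGS. The value is the raw area under the fraction-flipped curve over 0-4 h after rhamnose induction (AUC4h), with ≥20 reads per time point. It is not background-subtracted; inactive controls average about 0.047.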
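Further: Bxb1 expression induced with 0.2% (w/v) L-rhamnose at OD600 near 0.5, cultures sampled hourly, flipped fraction per protease–substrate barcode pair counted by paired-end Illumina sequencing.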

Row | Variant | area with substrate ENAYFQS | area with substrate ENEYFQS | area with substrate ENGYFQS | area with substrate ENHYFQS | area with substrate ENKYFQS | area with substrate ENNYFQS | area with substrate ENPYFQS | area with substrate ENQYFQS | area with substrate ENRYFQS | area with substrate ENSYFQS | area with substrate ENCYFQS | area with substrate ENDYFQS | area with substrate ENFYFQS | area with substrate ENVYFQS | area with substrate ENIYFQS | area with substrate ENMYFQS | area with substrate ENTYFQS | area with substrate ENYYFQS | area with substrate ENWYFQS
1 | L211F | 0.0564 | 0.0606 | 0.0614 | 0.0611 | 0.0679 | 0.0538 | 0.0612 | 0.0557 | 0.0586 | 0.0647 |  |  |  |  |  |  |  |  | 
2 | L211K | 0.0706 | 0.0603 | 0.0437 | 0.0658 |  | 0.0631 |  | 0.0565 |  | 0.0378 | 0.0677 | 0.0568 | 0.0664 | 0.0752 |  |  |  |  | 
3 | E189H | 0.0655 | 0.0615 | 0.0619 |  | 0.0373 | 0.0541 |  |  | 0.0453 | 0.0633 | 0.0736 | 0.0549 |  | 0.0757 | 0.104 | 0.0795 |  |  | 
4 | E189P | 0.0359 | 0.0477 | 0.0561 | 0.0438 |  |  |  |  |  | 0.0738 | 0.0758 |  |  |  | 0.108 |  |  |  | 
5 | E189W | 0.0608 |  |  | 0.0694 |  | 0.0505 |  |  | 0.0637 |  | 0.0733 | 0.0708 | 0.0498 | 0.0721 |  | 0.0806 |  |  | 
6 | E189R | 0.0455 | 0.0638 | 0.0611 | 0.0611 | 0.065 | 0.0621 | 0.069 |  |  | 0.0524 | 0.0317 |  | 0.0734 | 0.0724 | 0.0608 | 0.0894 | 0.0663 | 0.0375 | 
7 | E189S | 0.0578 | 0.06 | 0.0723 | 0.055 |  |  |  | 0.0492 |  |  | 0.0551 |  | 0.075 |  | 0.113 | 0.0735 | 0.0441 |  | 
8 | F226S | 0.082 | 0.0654 | 0.0702 | 0.0749 |  |  | 0.0624 | 0.0604 | 0.0601 | 0.136 |  | 0.0599 | 0.065 |  |  | 0.0955 | 0.0322 | 0.0632 | 0.069
9 | M188D | 0.0493 | 0.0759 |  |  | 0.0611 |  | 0.0567 | 0.0647 | 0.0622 |  |  | 0.0524 | 0.0431 |  |  |  | 0.0561 |  | 0.0288
10 | H215M | 0.0639 | 0.0691 | 0.0609 | 0.0248 |  | 0.0675 |  | 0.0691 | 0.0503 | 0.0477 |  | 0.0643 | 0.0644 |  |  |  | 0.0657 |  | 
11 | H215N | 0.0564 | 0.0583 | 0.0572 |  | 0.0513 | 0.045 | 0.0842 |  |  | 0.0781 |  | 0.06 |  | 0.0672 | 0.0416 |  |  | 0.0724 | 
12 | N186I | 0.0543 |  |  |  |  | 0.0609 | 0.0578 | 0.0632 |  |  | 0.0685 |  |  |  |  | 0.0804 | 0.045 |  | 
13 | N186S | 0.0612 |  | 0.0577 | 0.0864 |  | 0.0571 |  | 0.0591 | 0.0425 |  |  |  |  |  | 0.116 |  | 0.0687 |  | 
14 | F218T | 0.0526 | 0.0542 |  |  |  | 0.055 |  | 0.0617 |  | 0.07 | 0.0528 |  | 0.0739 |  |  |  | 0.0566 |  | 0.0523
15 | F218A | 0.0351 |  | 0.0657 |  |  |  |  |  |  | 0.0635 | 0.0905 | 0.0621 |  | 0.0621 | 0.07 | 0.06 |  | 0.0439 | 0.0535
16 | F218K | 0.0128 | 0.0669 | 0.0738 |  |  |  |  |  |  | 0.0645 |  |  | 0.0749 |  |  |  |  | 0.064 | 
17 | F218D | 0.0497 | 0.0766 |  |  |  | 0.0681 |  |  |  |  | 0.0593 | 0.0619 | 0.0432 |  |  |  |  |  | 0.0521
